{"source": "paper PMC6919601", "about": "“Identification of Plasmodium dipeptidyl aminopeptidase allosteric inhibitors by high throughput screening” (PLoS ONE, 2019)", "note": "About 230 (0.21%) of roughly 110,000 compounds showed an effect of 50% or more. Some of the results follow.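 Further: 30 min substrate incubation versus DMSO and 10 µM JCP410 controls.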"}
{"target": "DPAP1 (Plasmodium falciparum, UniProt Q8IIJ9)", "sequence (Q8IIJ9 whole entry, looked up)": "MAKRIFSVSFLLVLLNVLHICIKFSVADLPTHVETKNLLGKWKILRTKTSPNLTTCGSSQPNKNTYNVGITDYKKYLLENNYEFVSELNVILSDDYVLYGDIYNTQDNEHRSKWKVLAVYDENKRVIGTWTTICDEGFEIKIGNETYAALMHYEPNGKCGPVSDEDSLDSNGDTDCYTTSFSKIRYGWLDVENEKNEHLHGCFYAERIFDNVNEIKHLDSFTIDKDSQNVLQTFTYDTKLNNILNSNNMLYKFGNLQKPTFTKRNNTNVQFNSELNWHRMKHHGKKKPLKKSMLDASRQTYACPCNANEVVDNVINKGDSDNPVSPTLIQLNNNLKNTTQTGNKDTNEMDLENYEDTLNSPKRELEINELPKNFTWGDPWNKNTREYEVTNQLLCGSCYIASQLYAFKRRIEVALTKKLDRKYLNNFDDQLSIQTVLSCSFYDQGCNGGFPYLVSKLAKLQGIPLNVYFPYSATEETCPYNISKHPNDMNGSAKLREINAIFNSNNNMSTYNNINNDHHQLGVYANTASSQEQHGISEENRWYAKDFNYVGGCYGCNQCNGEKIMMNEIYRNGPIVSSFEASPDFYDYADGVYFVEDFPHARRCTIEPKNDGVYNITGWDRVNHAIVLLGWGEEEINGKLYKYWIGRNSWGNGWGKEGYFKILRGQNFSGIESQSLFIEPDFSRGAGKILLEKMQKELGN", "assay": "primary screen, percent inhibition; read by cleavage of a fluorogenic dipeptide substrate; higher = more effect of the substance", "design": "species or system P. falciparum D10 trophozoite lysates; single well", "units": {"% Inhibition @ 10 uM": "%"}}
{"smiles": "Cc1ccsc1C1CC(=O)Oc2c1c(=O)oc1ccccc21", "note": "(stereo not shown)", "% Inhibition @ 10 uM": -0.0108}
{"smiles": "O=C(COc1ccc(F)cc1)Nc1nn2c(-c3ccccc3)nnc2s1", "% Inhibition @ 10 uM": -2.48}
{"smiles": "COc1ccc(OCC(O)CN2CCN(c3ccccc3)CC2)cc1", "note": "(stereo not shown)", "% Inhibition @ 10 uM": -6.36}
{"smiles": "Cc1nnc2c(Oc3ccc(-c4ccccc4)cc3)nc3ccccc3n12", "% Inhibition @ 10 uM": -7.23}
{"smiles": "COc1ccc(OC)c(C2CC(=O)Nc3c2c(C)nn3-c2nc3ccccc3s2)c1", "note": "(stereo not shown)", "% Inhibition @ 10 uM": -1.11}
{"smiles": "CC(=O)c1c(O)cc(C)o/c1=N\\Cc1ccco1", "% Inhibition @ 10 uM": 0.674}
{"smiles": "COCCNC(=O)c1nn2c(C(F)(F)F)cc(-c3ccc(Br)cc3)nc2c1Cl", "% Inhibition @ 10 uM": -5}
{"smiles": "O=c1cc(CSCc2ccc(Cl)cc2)nc2scc(-c3ccccc3)n12", "% Inhibition @ 10 uM": -2.19}
{"smiles": "Cc1ccc(NC(=O)c2cccc(OC(F)F)c2)c(C)c1", "% Inhibition @ 10 uM": -1.84}
{"smiles": "CCOC(=O)CCNC(=O)c1ccccc1", "% Inhibition @ 10 uM": 2.62}
{"smiles": "COc1ccc(Br)cc1CNCc1ccc(OC)c(OC)c1", "% Inhibition @ 10 uM": -5.26}
{"smiles": "Cc1nc(N2CCOCC2)c2oc3ccccc3c2n1", "% Inhibition @ 10 uM": -0.28}
{"smiles": "Cc1cccc(OCC(=O)Nc2ccc(S(=O)(=O)N(C)Cc3ccccc3)cc2)c1", "% Inhibition @ 10 uM": 2.05}
{"smiles": "COc1ccc(C(=O)NCc2nnc(SCC(=O)c3ccc(Cl)cc3)o2)cc1", "% Inhibition @ 10 uM": -1.58}
{"smiles": "COc1ccc(C(=O)Nc2ccc(OC(C)C)cc2)cc1", "% Inhibition @ 10 uM": -1.76}
{"smiles": "O=C(CNC(=S)N(Cc1ccccc1F)C1CCCCC1)N1CCCC1", "% Inhibition @ 10 uM": 4.47}
{"smiles": "Cc1ccc(OCC(=O)Nc2ccc(CN3CCOCC3)cc2)c(C)c1", "% Inhibition @ 10 uM": 0.528}
{"smiles": "COc1ccc(/C=C2\\CS/C(=C\\c3ccc(OC)c(Cn4cccn4)c3)C2=O)cc1Cn1cccn1", "% Inhibition @ 10 uM": 2.35}
{"smiles": "COc1cccc(NC(=O)c2cccc(C)c2)c1", "% Inhibition @ 10 uM": 2.13}
{"smiles": "CCc1ccc(NC2=NC(=O)/C(=C\\c3ccc(OCC#N)cc3)S2)cc1", "% Inhibition @ 10 uM": -0.473}
{"smiles": "COc1ccc(C2=N/C(=C/c3ccccc3F)C(=O)O2)cc1Br", "% Inhibition @ 10 uM": 4.7}
{"smiles": "COc1ccc(OCC(=O)Nc2ccc(S(=O)(=O)N3CCC(C)CC3)cc2)cc1", "% Inhibition @ 10 uM": -3.78}
{"smiles": "Cc1ccc(OCCn2c(=O)oc3ccc(C)cc32)cc1", "% Inhibition @ 10 uM": -3.16}
{"smiles": "COc1cccc(CN2CCCN(C)CC2)c1", "% Inhibition @ 10 uM": -0.192}
{"smiles": "CCOc1ccc(C(=O)NC2C3CC4CC(C3)CC2C4)cc1", "note": "(stereo not shown)", "% Inhibition @ 10 uM": -9.2}
{"smiles": "O=C(Nc1ccc(Cl)cc1C(=O)Nc1ccncc1)c1ccco1", "% Inhibition @ 10 uM": 1.27}
{"smiles": "CC(=O)Nc1ccc(S(=O)(=O)Nc2cccc(C(=O)Nc3cccc(Cl)c3)c2)cc1", "% Inhibition @ 10 uM": -15.9}
{"smiles": "CCOc1ccc(C(=O)N2CCN(c3ccccc3OC)CC2)cc1", "% Inhibition @ 10 uM": -2.22}
